To fix the notation:
B1: OR4K15 (parent)
chain: GUUAACGGUCAUAGGCCAUGGAAACUAGGAGCACCAUUUCGCUGCCAGUGAAGAAAUGAACAAAGAAAAUCUGGGCCAGGCAGGCAUCAAAAGAAAUAGUCUUGCGCUCAACCAGAAAGUCUGUAAUCAUUUUAAGGGUA

Read counts are not given, so values of variants with three or more changes are uncertain.

The results in this text go back to the RNAGym collection of RNA variant scans (doi:10.7554/elife.90254).

Variants of B1 are the subject of this data set. The data set is described as follows: self-cleavage, relative activity (ratio to wild type); higher = more cleavage; in vitro, sequencing; the parent is a self-cleaving ribozyme.
In the case of A30G U70C U122A U131C, the self-cleavage turned out to be 0.54.

For the variant A27G A82G A86G U100C, the self-cleavage is 0.99.

Take U26C A54G A60G U100C A116G A135G: the self-cleavage amounted to 1.07.

A27G U43C A114G: the self-cleavage was determined as 0.49.

In the case of A30G A51U U108C, the self-cleavage is 0.11.

A27G U37C U38C U97C: the self-cleavage amounted to 0.85.

Regarding A30G A92G A111G U131C, the self-cleavage was 0.01.

For U26C G79A A116G, the self-cleavage came out at 0.09.

As to A30G A33U U43C, the self-cleavage worked out at 0.71.

As to A30G A51G A63C A78C A89U, the self-cleavage was 0.24.

Take G29A A60G C112A U122C: the self-cleavage was found to be 0.03.

U26C A68G A69G U102C A129G: the self-cleavage came out at 0.83.

For G28A U43A A55G A66G, the self-cleavage stood at 1.37.

For G28U A64G A96G U130A, the self-cleavage was found to be 1.82.

A30G A82U G123U: the self-cleavage was found to be 0.34.

For the variant U26C A33G U39C A68G U103C, the self-cleavage was 0.48.

With A27U A33G A67G A94G A95G A98G, the self-cleavage came out at 2.73.

In the case of A27G U43C A56G A111G, the self-cleavage is 0.04.

Consider G29A U72C A89G A125G U130C, for which the self-cleavage worked out at 0.02.

Regarding A30G C40A A117U, the self-cleavage amounted to 1.04.

As for G29U A51G A59G U108A, the self-cleavage stood at 0.

Take A30G A52U U132C: the self-cleavage was found to be 1.

A30G A68G U132C: the self-cleavage worked out at 1.51.

As for A30G A54G U132C, the self-cleavage was 1.33.

For the variant A27G A51G C88U, the self-cleavage is 1.13.

Consider U26C U57C A60G, for which the self-cleavage was 0.41.

With U26C G79A U100C U131C U139C, the self-cleavage worked out at 0.05.

As to U26C A51G G83A, the self-cleavage is 1.26.

With U26C A64G G74C U108A, the self-cleavage is 0.03.

Take A30G A52G A90G: the self-cleavage was found to be 0.26.

As to A30G A67G U102C, the self-cleavage came out at 0.51.

As for A30G U97A A129U, the self-cleavage was 0.47.

For U26C U103C U139A, the self-cleavage was 0.65.

Turning to A30G A55G U102C U103C A116U U131C, the self-cleavage worked out at 0.

On to U26C U103C A116G, for which the self-cleavage is 0.01.

Consider A27G U57C A140G, for which the self-cleavage was found to be 1.21.

Regarding A30G G31A U43C U72C, the self-cleavage was determined as 0.14.

For A27G A68G A86G, the self-cleavage came to 1.

As for A30G A56G A69G, the self-cleavage is 1.26.

With A27U G29C G83A G106A U132C, the self-cleavage amounted to 0.01.

On to A27U U39C A67G, for which the self-cleavage amounted to 1.39.

On to A30G U37C A67G A110U, for which the self-cleavage was 1.43.

Turning to A30G A36U A78U A114U U130C, the self-cleavage amounted to 0.02.

In the case of U26C A90U A95G A117G, the self-cleavage stood at 1.78.

For the variant A30G A67G U103C, the self-cleavage was determined as 0.71.

Turning to A30G U49C A52G A60U U103C, the self-cleavage is 0.31.

Regarding A27G A66G A86G, the self-cleavage amounted to 2.03.

For the variant U26C U43C U132A, the self-cleavage was 1.54.

A30G A55G A62G A64G A94U: the self-cleavage worked out at 1.21.

A30G C45G A78G U122G: the self-cleavage was 0.3.

Regarding A27G U38C U70C, the self-cleavage is 0.11.

As to A27G C40A U130C, the self-cleavage worked out at 0.53.

For the variant A30U A33U U103C, the self-cleavage came to 1.53.

With A30G A63G A90C U127C, the self-cleavage amounted to 0.29.

As to U26C A82G G123A A129G, the self-cleavage amounted to 0.22.

For the variant U26C U57A U100C, the self-cleavage turned out to be 1.66.

Regarding U26C U43A U100C, the self-cleavage was found to be 2.25.

Regarding A30G C42U U87C, the self-cleavage came out at 0.25.

With A30G U37C U43C A54U, the self-cleavage amounted to 1.12.

As to A30G A60G A91G A125G, the self-cleavage came to 0.18.

In the case of A30G U49C A62G A63G G115A, the self-cleavage turned out to be 0.07.

Consider A30G U39A A54U A91G A116U, for which the self-cleavage was 0.04.

For the variant A30G C113U U122A U127C A135G, the self-cleavage is 0.

For A30G U38C U49A C105A, the self-cleavage was determined as 0.03.

In the case of A30G U43G U133C, the self-cleavage was 2.34.

In the case of A27G U70C A129U, the self-cleavage stood at 0.26.

As to U26C A63C U97C, the self-cleavage stood at 1.8.

In the case of A27U A51G G80A, the self-cleavage was 0.21.

Consider A30G A52G U124C, for which the self-cleavage came to 1.18.

Take G29A A54G A140G: the self-cleavage amounted to 0.54.

For A27G A60G A89G U102C A118G A134U, the self-cleavage stood at 1.25.

With U26C A56G U72G A116G, the self-cleavage came to 0.15.

On to A27G U38A U120C, for which the self-cleavage was 0.88.

For the variant A30G A47G A59G A92U U103C U108C U127A, the self-cleavage came to 0.01.

With A27U U108C U130C, the self-cleavage amounted to 0.01.

As to A30G A47G A51G U124C, the self-cleavage was 1.12.

As to A27U A66G A82U, the self-cleavage was determined as 0.23.

Take G29A A30U A69G A92G: the self-cleavage worked out at 2.22.

As for A30G A90G A118G, the self-cleavage was 0.69.

Turning to A27G A62G A95G U97C G136A, the self-cleavage stood at 0.12.

Regarding A30G A96G A111U, the self-cleavage was found to be 0.25.

A27G A33G A47G U70C A111G: the self-cleavage is 0.06.

Consider G28A A68G U72A A116G, for which the self-cleavage turned out to be 0.06.

As to A27G U72A C105U U120C, the self-cleavage was found to be 0.01.
